These results are taken from paper PMC6555816, “Tau local structure shields an amyloid-forming motif and controls aggregation propensity” (Nature Communications, 2019).

The data set concerns the molecule itself. Put plainly: ThT fluorescence aggregation assay + transmission electron microscopy; self-assembly into amyloid fibrils: 4.4 µM tau or tau RD with 4.4 µM heparin, 25 µM ThT, 1x PBS with 5 µM β-mercaptoethanol, room temperature; fibrils confirmed by TEM.

B1: full-length (FL) P301L tau (2N4R; […]) (natural protein)
chain: not shown
notes: tau, human, 2N4R isoform, […], disease-associated mutation P301L; also called mutant P301L tau; source: E. coli BL21-Gold (DE3), purified (Ni-NTA, HiTrap SP HP, Superdex 200)
Consider B1, for which the binding result is recorded as “binds”.
